We go through 73 sequences from paper PMC10726135.

This is one part of the list. At the low end of the ranking the order means little. The protein was read in a cell extract, so binding may be indirect.

The target in the assay is T1, HNF4alpha8 (COS-7 nuclear extract) (UniProt P41235-5).
T1 sequence: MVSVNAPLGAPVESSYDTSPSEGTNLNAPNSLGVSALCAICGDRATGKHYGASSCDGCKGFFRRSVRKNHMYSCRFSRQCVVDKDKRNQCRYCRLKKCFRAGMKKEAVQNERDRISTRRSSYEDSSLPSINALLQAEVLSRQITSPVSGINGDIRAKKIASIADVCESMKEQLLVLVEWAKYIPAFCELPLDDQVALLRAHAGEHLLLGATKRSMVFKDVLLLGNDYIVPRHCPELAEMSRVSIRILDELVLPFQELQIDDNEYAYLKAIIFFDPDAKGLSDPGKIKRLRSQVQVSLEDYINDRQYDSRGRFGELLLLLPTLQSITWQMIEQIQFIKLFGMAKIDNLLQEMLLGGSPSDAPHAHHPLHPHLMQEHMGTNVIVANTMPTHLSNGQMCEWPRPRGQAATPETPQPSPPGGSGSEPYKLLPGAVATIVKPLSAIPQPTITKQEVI
Kind of assay: protein-binding microarray. The following applies: COS-7 nuclear extract on double-stranded Agilent 4x180k PBM; binding buffer, salt, pH and temperature not given; high values mean tight binding; double strand, one strand shown; sequences stand for … in …GCCTAGGGAGATTAGAGTATCGGTCGA
Turning to CTATGTCAGGCCATTTCACCTTTGCCCTGT, the binding signal (log2 normalized intensity) came to 7.53.

Turning to CTGTCCAGCAGACAATGGGAGACATTCCTT, the binding signal (log2 normalized intensity) is -1.36.

With AGAAATCTCCAAGTCAAACATTAGCCAGGA, the binding signal (log2 normalized intensity) was -1.26.

For ACCCTGCTGTAGTGTGTAAGTATGCTCACT, the binding signal (log2 normalized intensity) is 1.

Consider TACACACCATAAGAGGCTCTAGATCTCAAA, for which the binding signal (log2 normalized intensity) is -1.18.

Take CGCTCCCTGTGCCCACTTTCCTGGGCCGGG: the binding signal (log2 normalized intensity) is -1.25.

With TGGATCATGTGTCTGAGCAAGTTTCCTCCT, the binding signal (log2 normalized intensity) was -0.366.

In the case of CGTCAGGAGGAAGCAGCGATGGAAGGGATG, the binding signal (log2 normalized intensity) was -1.23.

Turning to GCGCGTGGCCCAAGGCCTCTGACATAAATC, the binding signal (log2 normalized intensity) is -1.47.

Consider TCACCTGCTCATTGACCCTTAGGCCAAGGC, for which the binding signal (log2 normalized intensity) was found to be 3.1.

Take TCAGAAGCAGGTCAATAGGGCAGGGGGGAG: the binding signal (log2 normalized intensity) was found to be 1.54.

As to AGTCTGGGAAGCTGTGTGAAGTGACTTGCC, the binding signal (log2 normalized intensity) came out at 0.676.

Turning to AGGGCAGATAACAAGGGCATGTAAAGGAGA, the binding signal (log2 normalized intensity) is -1.48.

As to TCGCACTTCAGCACCATAAAGATAAGCAAG, the binding signal (log2 normalized intensity) was -1.18.

TGAATATCTGGCAAATTTGCATTAGTGGAG: the binding signal (log2 normalized intensity) stood at 1.34.

Turning to AGCCCTTAGGACCAGGGGGGGAATGCACAG, the binding signal (log2 normalized intensity) is -1.35.

As for AGAGTGGACTCACAGCAGGAGGGCTTTCAC, the binding signal (log2 normalized intensity) was -1.31.

On to TCCGAATTGGGGGAGGGTAGTCTATCTCAT, for which the binding signal (log2 normalized intensity) was -1.4.

In the case of CAGTAACTGTCATGGATGACCTCTTTTAGT, the binding signal (log2 normalized intensity) stood at 3.57.

Take TTAGCTTTCAGTGACTGCTCATTCTTGACC: the binding signal (log2 normalized intensity) is 2.23.

GCAGACCTGCCAAAGTGTACCCTGTGCTTC: the binding signal (log2 normalized intensity) was 2.31.

For the sequence CGAACCTGTCTCCAGAGGACTTGCGGTGTT, the binding signal (log2 normalized intensity) is -1.08.

For ATAGGTTACCTTGACCAAAGTACAGTAATT, the binding signal (log2 normalized intensity) is 3.24.

Take GGACTCCCAAGATGGATTGGGTCCACACAT: the binding signal (log2 normalized intensity) was found to be 2.25.

With GCTGCGGTGGGCTCCACCCAGTTCGTGCTT, the binding signal (log2 normalized intensity) is -1.23.

For TCCTAGAGTCCCTATTTGCTTGTGAATGAA, the binding signal (log2 normalized intensity) was found to be 0.61.

As to AATAAAATCTGGCAGCTTAAAAATGTTGAC, the binding signal (log2 normalized intensity) is -1.15.

With CCAGGCCTCCAGCTCTTTTGAACCCAAGGC, the binding signal (log2 normalized intensity) was found to be 2.76.

On to CTGCTTGTGAGACCGGTTCCGCGGTCCGCA, for which the binding signal (log2 normalized intensity) was -1.3.

For the sequence CTTCTGTTTAAACTGATAACCTTGCCCAAC, the binding signal (log2 normalized intensity) is 0.853.

As to TCGAGGCCAGGGATTAAAGAATTCGTCCAG, the binding signal (log2 normalized intensity) was -1.41.

As to GTATTGCAAGTATTTCACCCCAGAGGCTAA, the binding signal (log2 normalized intensity) was determined as 2.44.

For TGAGTTCTTATCTAGGTAAGTATAGTGGGA, the binding signal (log2 normalized intensity) was 0.775.

With TTAGATCAGAGGTCTAATTCCCAAGGGTAT, the binding signal (log2 normalized intensity) is -0.116.

Regarding TCTGGCATAGGAACAAAGGTTGGTGTGAAC, the binding signal (log2 normalized intensity) worked out at 2.17.

CAGAAATGCCGCTAATGTATTTCGGGGCAC: the binding signal (log2 normalized intensity) was 0.877.

As for CTCAAGAAAGGATCTCACCCAAACCATCCC, the binding signal (log2 normalized intensity) came to 1.4.

Take GCATACAGGGTCCAAAGGTGTCAAGAACAT: the binding signal (log2 normalized intensity) came to 3.56.

As for TCCTTAGTGCATGGGAACTTCTCACCTTCA, the binding signal (log2 normalized intensity) is -1.11.

With TGTGATCTACTCCCTGTTCTTACACCTGCT, the binding signal (log2 normalized intensity) is -1.21.

With ACCTCAGAGAGCCGGAAACTCCACCTTCAG, the binding signal (log2 normalized intensity) was -1.27.

GTATTTATCAACATTCTTTCTGATAATAGA: the binding signal (log2 normalized intensity) was -0.146.

On to CCTGCCAAAGTTATCAAGTTGCTTAAATTC, for which the binding signal (log2 normalized intensity) is -0.393.

Regarding TAGCTGAGGGCGCTGTTGATGGGCAGCGCG, the binding signal (log2 normalized intensity) was -1.36.

Take TAGACTATGCCAAACATTTCCTGCCTTTCA: the binding signal (log2 normalized intensity) was -1.31.

Take TGCCCTTTGCCTCCCTGCATTCCATTTCTG: the binding signal (log2 normalized intensity) came out at 2.75.

Consider TCTTCCAGCGGGTGCTTAAAAGATAACAGT, for which the binding signal (log2 normalized intensity) is -1.05.

On to TTGAAGTCTGCCCTCCATGTAACCCCTTTT, for which the binding signal (log2 normalized intensity) came out at 3.98.

For TCTACAGGACAGCCAGGCAGTCGGGAAATT, the binding signal (log2 normalized intensity) is -1.2.

On to CTGCTCTGGGCTTTCTCTGCCTCCATCCCT, for which the binding signal (log2 normalized intensity) is -1.18.

On to AAAGGAGGCAAGGTCCAAACTTCTCCACTC, for which the binding signal (log2 normalized intensity) was 2.07.

Take GACACCAAACACAGTTGCTGTCTAGAAAGA: the binding signal (log2 normalized intensity) is -1.32.

Regarding CTGAAAAACAAAATGCATTTCCTTATTCTT, the binding signal (log2 normalized intensity) was -1.28.

Regarding TCAAGAGGATTACATAACCACCACTGGGCA, the binding signal (log2 normalized intensity) was -1.44.

Regarding GGGCCTCAGAGAAAGCCTGTTTGCTTCTGC, the binding signal (log2 normalized intensity) was -1.52.

Take TGTTTGGATGCCAAATTCCTCCCACTCTGA: the binding signal (log2 normalized intensity) was 0.294.

In the case of AAGACCAAAGGTCATGGCAACAGTTTTCTG, the binding signal (log2 normalized intensity) was 4.51.

Turning to GAGGGAAGGAGCCTAACTTTGATAGGCACA, the binding signal (log2 normalized intensity) was -1.29.

Regarding TTTTAGAGATCAGGATACCAAGGCTCAGAG, the binding signal (log2 normalized intensity) was -1.2.

Take TGTTTCCAATAGGTTTGATTTCAGCATGTT: the binding signal (log2 normalized intensity) amounted to 1.07.

As for ACTCTATGTTAGGCTGGAAAACTGGGCTGT, the binding signal (log2 normalized intensity) is -1.25.

GCTGTGTCCCACAGGGAAAGTATGGGTCAG: the binding signal (log2 normalized intensity) was 1.38.

For GCCTTTAATCAACTGCAGGAGTCGGGAGGT, the binding signal (log2 normalized intensity) is -1.21.

Turning to CCCTGCATCCACATGGGCGTCACCAACCAG, the binding signal (log2 normalized intensity) is 2.16.

As to CAGTAACAGGGAGTCTGTTGCAAGCAATGG, the binding signal (log2 normalized intensity) was -1.43.

With AACCCCTTTTCAATTCCTTATCTCGTTCTG, the binding signal (log2 normalized intensity) was determined as 0.721.

Take AAACACTGAACCTTGTCCCACTCTTGGGTC: the binding signal (log2 normalized intensity) was 2.49.

For ACAGTTGCTGTCTAGAAAGATTGCAGCAAG, the binding signal (log2 normalized intensity) was -1.19.

Consider GGGTTAAAGTCTACAACCAGAACTTCTTAT, for which the binding signal (log2 normalized intensity) worked out at 1.71.

On to TCATTTCCCCATTCCTAAGTTCCAAAGGCC, for which the binding signal (log2 normalized intensity) was 3.83.

Turning to AGGCTGAGGTTTTCATCCCAGGGCTGGGGA, the binding signal (log2 normalized intensity) is -1.17.

On to CCTGGTCACTATTGACATTTGGGGTCAGAT, for which the binding signal (log2 normalized intensity) was 4.28.

For TGGAAAGGTGAATGTACAAAGGTCAACGGC, the binding signal (log2 normalized intensity) was 6.5.
